Experimental data: the supplement of paper PMC12217912
The list shows a part of the results. The full chains were built here from the parent and the listed change. Values near 0.05 are background.

B1: TEV protease; numbered along this chain (parent)
chain: MGESLFKGPRDYNPISSSICHLTNESDGHTTSLYGIGFGPFIITNKHLFRRNNGTLVVQSLHGVFKVKDTTTLQQHLVDGRDMIIIRMPKDFPPFPQKLKFREPQREERICLVTTNFQTKSMSSMVSDTSCTFPSGDGIFWKHWIQTKDGQCGSPLVSTRDGFIVGIHSASNFTNTNNYFTSVPKNFMELLTNQEAQQWVSGWRLNADSVLWGGHKVFMVKPEEPFQPVKEATQL

Variants of: B1
Experiment: raw area under fraction-flipped curve 0-4 h after induction (AUC4h, not background-subtracted), DNA-recorder readout of cleavage of the substrate (dimensionless); higher = more cleavage of the substrate by the protease variant
Settings: temperature: 34 °C; time window: 0-4 h after rhamnose induction
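Further: Bxb1 expression induced with 0.2% (w/v) L-rhamnose at OD600 near 0.5, cultures sampled hourly, flipped fraction per protease–substrate barcode pair counted by paired-end Illumina sequencing.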

Row | Variant | area with substrate ENLCFQS | area with substrate ENLDFQS | area with substrate ENLEFQS | area with substrate ENLFFQS | area with substrate ENLIFQS | area with substrate ENLKFQS | area with substrate ENLLFQS | area with substrate ENLMFQS | area with substrate ENLNFQS | area with substrate ENLPFQS | area with substrate ENLRFQS | area with substrate ENLWFQS | area with substrate ENLGFQS | area with substrate ENLHFQS | area with substrate ENLQFQS | area with substrate ENLSFQS | area with substrate ENLVFQS | area with substrate ENLTFQS
1 | D79L | 0.0665 | 0.0485 | 0.0588 | 0.0908 | 0.0801 | 0.0715 | 0.0679 | 0.071 | 0.0685 | 0.0609 | 0.064 | 0.0655 |  |  |  |  |  | 
2 | D79G | 0.0834 | 0.0596 | 0.0616 | 0.0704 |  | 0.0865 | 0.0734 |  | 0.0582 | 0.0581 | 0.0799 | 0.0708 | 0.0639 | 0.0707 | 0.0544 | 0.0574 | 0.0704 | 
3 | V113H | 0.0804 | 0.066 | 0.0628 | 0.0749 | 0.0662 | 0.0607 |  | 0.0664 | 0.0628 |  |  |  | 0.0734 | 0.0659 | 0.0515 | 0.0538 |  | 
4 | N116A | 0.0807 | 0.0583 | 0.12 | 0.0912 | 0.0757 | 0.0835 | 0.104 |  | 0.0568 | 0.0424 | 0.0763 | 0.063 | 0.0752 | 0.0687 | 0.073 | 0.0644 |  | 
5 | I139N | 0.0678 | 0.0589 | 0.06 | 0.0777 | 0.0471 | 0.0633 | 0.0675 | 0.0653 | 0.0635 | 0.0735 | 0.0657 | 0.0456 | 0.0668 | 0.0608 | 0.0533 | 0.056 | 0.0685 | 0.0613
6 | I139Q | 0.0702 | 0.0555 | 0.0728 | 0.0964 |  | 0.0691 | 0.0795 |  | 0.0643 | 0.0441 |  | 0.0899 |  | 0.0469 |  | 0.071 |  | 
7 | K100W | 0.0771 |  | 0.0531 | 0.0617 |  |  |  | 0.0721 |  |  | 0.0761 | 0.0636 |  | 0.065 | 0.0721 | 0.0749 |  | 
8 | F117M | 0.064 | 0.031 |  | 0.075 |  | 0.0825 |  |  | 0.0585 |  | 0.0753 |  | 0.0637 | 0.0701 |  | 0.031 |  | 
9 | K90I | 0.0734 | 0.0601 | 0.0719 | 0.111 | 0.0686 | 0.0722 | 0.0645 | 0.0772 | 0.0654 | 0.043 | 0.0806 |  | 0.0588 | 0.0733 | 0.0707 | 0.0618 |  | 
10 | I110H | 0.0554 | 0.0549 | 0.0505 | 0.0621 | 0.0694 | 0.0582 |  |  | 0.06 | 0.0515 |  | 0.0584 | 0.07 | 0.0464 | 0.161 | 0.0586 | 0.0534 | 
11 | S135D | 0.043 | 0.0498 | 0.0555 | 0.0807 | 0.0872 | 0.068 | 0.068 |  | 0.063 |  |  | 0.0858 |  |  |  |  | 0.0772 | 
12 | D91C | 0.0903 |  |  | 0.0812 | 0.0635 |  | 0.07 |  | 0.0685 | 0.0576 |  |  |  | 0.0769 | 0.0945 |  |  | 
13 | P104Y | 0.0708 | 0.0535 | 0.0545 | 0.0447 | 0.0595 | 0.0603 | 0.0566 | 0.0636 | 0.0573 | 0.0648 | 0.0546 | 0.0434 |  | 0.055 | 0.0409 | 0.0505 | 0.0561 | 
14 | F95R | 0.0585 | 0.0638 |  | 0.0598 | 0.0636 | 0.061 |  |  | 0.0603 | 0.0478 | 0.0628 |  | 0.0811 | 0.0438 | 0.0665 | 0.0527 | 0.0718 | 
